SMILES strings stand for the structures. The whole screen tested about 340,000 compounds, of which about 6,900 (2%) were called active. Cut-off read from the data, not from the text of the source: active = inhibition above about 30%; inactive = below that, where a call was filed. Only a part is listed here, and it is no random draw. Where no call is shown, the source filed none.

This assay addresses D(2) dopamine receptor (Homo sapiens) (UniProt P14416). The experiment in a line: HTS Assay for Allosteric Antagonists of the Human D2 Dopamine Receptor: Primary Screen for Antagonists. Note: 0% is about no effect. The conditions noted are these: HEK293 TREx D2 cells, calcium flux, dopamine EC80; at 10 µM; stronger effect = higher value. A digest of the protocol: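 Calcium mobilization kinetics were recorded at 1 s intervals in tetracycline-induced HEK293 T-REx D2 cells, first for 180 s after compound addition and then 180 s after EC80 dopamine.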
Sequence of UniProt P14416 (P14416 whole entry, looked up): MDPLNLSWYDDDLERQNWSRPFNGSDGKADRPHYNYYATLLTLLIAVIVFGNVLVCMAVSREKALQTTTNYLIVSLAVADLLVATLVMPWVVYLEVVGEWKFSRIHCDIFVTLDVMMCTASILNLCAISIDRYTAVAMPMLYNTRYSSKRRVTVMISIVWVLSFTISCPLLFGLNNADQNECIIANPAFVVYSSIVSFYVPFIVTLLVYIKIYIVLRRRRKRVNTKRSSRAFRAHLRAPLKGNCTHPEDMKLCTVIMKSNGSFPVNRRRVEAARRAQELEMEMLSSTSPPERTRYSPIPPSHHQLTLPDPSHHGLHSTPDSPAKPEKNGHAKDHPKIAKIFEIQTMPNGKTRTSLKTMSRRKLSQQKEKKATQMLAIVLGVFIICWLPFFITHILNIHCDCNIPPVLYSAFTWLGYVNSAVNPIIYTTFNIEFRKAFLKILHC
In general, inhibition refers to the change of the read-out against control, counted positive when it falls. Take `COc1cc(-c2ccno2)ccc1S(=O)(=O)N1CCN(c2ccc(F)cc2)CC1`: the inhibition was -2.05%.

With `CCc1ccc2occ(CC(=O)N(Cc3ccc(N(C)C)cc3)C3CCS(=O)(=O)C3)c2c1` (stereo not given), the inhibition stood at 5.39%. The value for `CCOC(=O)c1cccc(NC(=O)c2sc3nc[nH]c(=O)c3c2C)c1` was -12.4%.

For the molecule `Cc1ccc(C(=O)NCCc2nnc3ccc(SCC(=O)Nc4ccccc4C)nn23)cc1`, the inhibition is active: 41.2%. Under `CCOC(=O)N1CCC(NC(=O)c2ccc3c(c2)N(Cc2ccc(Cl)cc2)C(=O)c2ccccc2S3=O)CC1` (stereo not given) stands 8.34%.

As to `Cc1cccc(N(C)S(=O)(=O)c2nnc(NC(=O)C3CCCCC3)s2)c1`, the inhibition amounted to 7.2%. Under `Cn1ccc2cc(S(=O)(=O)N3CCN(C(=O)Nc4ccccc4F)CC3)ccc21` stands -17.2%; under `O=C(O)c1ccc(Nc2ncnc3ccccc23)cc1`, active: 31.7%.

With `CCc1cccc(NC(=O)COc2cc(=O)n(CC)c3ccccc23)c1`, the inhibition is -8.67%. As for `Cn1nccc1C(=O)NC1CCN(Cc2ccccc2)CC1`, the inhibition was active: 54.8%. The value for `Nc1nc(N)c(S(=O)(=O)c2ccccc2)c(Nc2ccc(F)cc2)n1` was -9.59%; that for `CC(C)c1ccc(/C=C(\C#N)c2nc(-c3ccc(O)cc3)cs2)cc1` was -1.97%. The value for `CCc1nnc(NC(=O)CSc2nc3c([nH]c4ccccc43)c(=O)n2-c2ccc(OC)cc2)s1` was 15.7%; that for `O=C(C1CCCCC1)N(Cc1cccnc1)c1nc2ccc(F)cc2s1` was -26.8%; that for `O=C1C2CCCN2C(=O)N1CCCN1CCN(c2cccc(Cl)c2)CC1` (stereo not given) was active: 31.3%. The value for `CCOc1ccc(NC(=O)Cn2c(=O)cc(C)c3c(C)nn(-c4ccc(CC)cc4)c32)cc1` was -6.13%; that for `COc1ccc(C(=O)Nc2ccccc2C(=O)OCc2cc(=O)n3nc(C4CC4)sc3n2)cc1` was -18.1%. Take `CCCCc1nc(NCCO)c(C#N)c2c1CCCC2`: the inhibition was active: 48.2%.

With `CC(C)c1nc2ccc(NC(=O)C34CC5CC(CC(C5)C3)C4)cc2[nH]1`, the inhibition is active: 33.3%. As to `CCOC(=O)N1CCc2c(sc3c2c(=O)n(-c2ccc(CC)cc2)c(=O)n3Cc2cc(C)ccc2C)C1`, the inhibition was 5.94%. The value for `CCOC(=O)c1c(C)oc2nc(C)nc(Nc3cc(C)ccc3OC)c12` was -14.8%. Under `CCOc1ccccc1NC(=O)C1CCCN(S(=O)(=O)c2cn(C)cn2)C1` (stereo not given) stands -9.55%; under `CCCCN(CC)Cc1ccc(CNS(=O)(=O)c2cc3c(cc2Cl)NC(=O)CO3)o1`, -23.9%. The value for `CCOc1ccc(NC(=O)Cn2c(=O)n(Cc3ccc(C(=O)NCc4ccc5c(c4)OCO5)cc3)c(=O)c3ccccc32)cc1` was -0.223%; that for `CCCCOc1ccc(C(=O)Nc2ccc3c(c2)CCCN3S(=O)(=O)c2ccc(C)cc2)cc1` was 1.85%; that for `CCOc1ccc(-c2cc(NC(=O)Nc3ccccc3C(F)(F)F)c(C(=O)OC)s2)cc1` was 7.74%.

With `Cc1ccc(N2CC(C(=O)NCc3nnnn3-c3ccc(C)c(C)c3)CC2=O)cc1` (stereo not given), the inhibition is -4.05%. The value for `COC(=O)c1ccc(Cn2c(SCC(=O)Nc3ccc(F)cc3)nc3ccccc32)cc1` was 8.85%.

As for `O=C(Nc1c2c(nn1-c1ccc(Cl)cc1)CS(=O)(=O)C2)c1cccc(Cl)c1`, the inhibition is -3.72%. The value for `CC1=C(C(=O)Nc2ccccc2)C(c2cccs2)n2nc(SCc3ccccc3)nc2N1` (stereo not given) was 4.93%; that for `O=C(CSc1ccc2nnc(CCNS(=O)(=O)c3ccccc3)n2n1)Nc1ccccc1C(F)(F)F` was 2.55%; that for `CC(=O)N1c2ccc(S(=O)(=O)NCCC(=O)Nc3ccc(C)cc3Br)cc2CC1C` (stereo not given) was 12.4%. Under `CCc1cccc(NC(=O)CN2c3ccccc3S(=O)(=O)c3ccccc32)c1` stands 17.8%. Under `O=C(c1ccc(F)cc1)n1nc(-c2ccc(Cl)cc2)nc1NCc1ccco1` stands -16%; under `COc1ccccc1NC(=O)Cn1nc(C)n2cccc2c1=O`, 3.19%; under `Cc1ccc(CNC(=O)Cn2ccn(-c3cc(C)cc(C)c3)c(=O)c2=O)cc1`, -22.2%. Consider `COc1ccc(OC)c(NC(=O)c2cc3cc4ccc(C)cc4nc3s2)c1`, for which the inhibition is 20.8%. The value for `COc1ccc(CCN2C(=O)CN(C3CCCCCC3)C(=O)C2c2ccc(C)cc2)cc1OC` (stereo not given) was 8.93%. The value for `O=C(NCc1ccccn1)c1nn(-c2ccccc2F)nc1CO` was 17.9%; that for `COc1cc(CN2CCN(S(=O)(=O)c3ccc(F)cc3)CC2)cc(OC)c1OC` was 8.08%; that for `Fc1ccccc1C1=NC(c2ccc(C(F)(F)F)cc2)=Nc2ccccc2N1` was -1.71%. Under `CCOc1ccccc1CN1CCc2nc(Nc3ccccc3)ncc2C1` stands -12.6%; under `Fc1ccc(-n2ncc3c(N4CCN(Cc5ccccc5)CC4)ncnc32)cc1`, 7.05%.

Turning to `COC(=O)c1cc(OC)c(OC)cc1NC(=O)c1ccc2c(c1)CCN2S(=O)(=O)c1ccccc1`, the inhibition turned out to be 2.02%. The value for `COc1cccc(CNC(=O)CSc2n[nH]c(-c3ccccc3Cl)n2)c1` was -28.3%; that for `COc1ccc(OC)c(CCNC(=O)CN2C(=O)COc3ccc(S(=O)(=O)N4CCCCCC4)cc32)c1` was -4.79%. The value for `CCc1ccc(CNC(=O)c2ccc3c(c2)nc2n3CCCCC2)cc1` was -25.8%; that for `COc1cccc(CNC(=O)CCNS(=O)(=O)c2ccc3c(c2)CCCC(=O)N3)c1` was -1.41%. The value for `Cc1ccc(O)c(NC(=O)COCc2cc(-c3ccco3)on2)c1` was -3.94%; that for `CC(=O)Nc1nonc1-c1nnc(SCc2ccccc2Cl)n1C` was 9.47%; that for `COc1cc2c(cc1OC)n(CC(=O)c1ccc(C)cc1)c(=O)n1nc(CCn3nc(C)cc3C)nc21` was 6.42%. `COc1ccc(NC(=O)c2ccc3c(c2)CCN3S(=O)(=O)c2ccccc2)cc1`: the inhibition was -6.89%. On to `COc1ccc(-c2cc(C(=O)Oc3cccc(C)c3C)c3ccccc3n2)cc1`, for which the inhibition was -2.8%. The value for `CN(C)CCNC(=O)Cn1nc(N2CCN(c3ccccc3)CC2)ccc1=O` was -2.15%; that for `CCOc1ccc(CC(=O)NCc2ccc3c(c2)CCN3C(C)=O)cc1OCC` was -9.92%. With `CC(C)(C)OC(=O)N1CCC(c2c(C(=O)N3CCN(c4ncccn4)CC3)cnn2-c2cccc(F)c2)CC1`, the inhibition is -2.31%.

On to `COc1ccc(NC(=O)CCc2nnc3n(CC(C)C)c(=O)c4ccccc4n23)cc1OC`, for which the inhibition turned out to be 0.0213%. The value for `Cc1ccc(C)c(S(=O)(=O)c2nnn3c2nc(N2CCCCC2)c2sccc23)c1` was 4.3%. Under `CCc1cccc(NC(=O)C(CC)n2nc(C)c3sc4ccccc4c3c2=O)c1` (stereo not given) stands 18.1%.

With `COc1ccc(NC(=O)c2sc3nc4c(cc3c2N)CN(Cc2ccccc2)CC4)cc1OC`, the inhibition was 4.89%. For `Cc1c(C(=O)NCc2ccccc2Br)oc2ccc3c(c12)C(=O)CC(C)(C)O3`, the inhibition amounted to 7.3%. Under `COC(=O)c1cc(CNC(=O)c2ccc(S(=O)(=O)N(C)c3ccccc3)cc2)ccc1OC` stands active: 74.1%; under `Cc1noc(-c2ccc(-c3noc(-c4ccc(C(F)(F)F)cc4)n3)cc2)n1`, -5.22%. The value for `CC(C)c1ccc(NC(=O)C(Cc2ccccc2)NS(=O)(=O)c2ccc3c(c2)oc(=O)n3C)cc1` (stereo not given) was -10.3%.

Consider `COc1ccc(Nc2nc(-c3ccccc3F)nc3ccccc23)cc1OC`, for which the inhibition was determined as 11.5%. The value for `O=C(CSc1nnc(-c2ccccc2)c(-c2ccccc2)n1)NCc1ccco1` was active: 40%; that for `CC(C)c1ccc(NC(=O)Cn2c(=O)oc3cc(S(=O)(=O)N4CCCC4)ccc32)cc1` was -13.1%; that for `COc1ccc(-c2nc(S(=O)(=O)c3ccc(C)cc3)c(NCc3ccccc3)o2)cc1` was -15.8%. Consider `Cc1cc(C)c2c(=O)c3c(oc2c1)C(=O)N(Cc1ccco1)C3c1ccccc1F` (stereo not given), for which the inhibition amounted to 5.05%. The value for `CCc1c(C)c(C#N)c2nc3ccccc3n2c1Nc1cccc(C(F)(F)F)c1` was -3.56%; that for `CCOC(=O)c1c(C)[nH]c(C)c1S(=O)(=O)NCC(=O)N1CCN(c2ccccc2F)CC1` was 8.8%. Under `COc1ccc(-c2nc3ccccc3s2)cc1NC(C)=O` stands -11.5%; under `COc1ccc(CNC(=O)C2CCN(S(=O)(=O)c3ccc4c(ccn4C)c3)CC2)cc1`, -8.63%.

Turning to `COc1ccc(C(=O)CCC(=O)Nc2cc(C)ccc2C)cc1`, the inhibition came out at 19.1%. Under `O=C(Nc1ccccc1-c1ccccc1)NC1CC2CCCC(C1)N2Cc1ccc(F)cc1` (stereo not given) stands active: 51.6%.

On to `CCOc1ccccc1NC(=O)c1cc2c(=O)[nH]c3ccccc3c2s1`, for which the inhibition was -9.45%. Under `Cc1cccc2sc(N(Cc3cccnc3)C(=O)COc3ccccc3)nc12` stands -3.08%; under `CC(=O)c1cccc(Nc2nc(-c3ccccc3Cl)nc3ccccc23)c1`, 13%.

Take `CC(C)(C)Cn1c(=O)[nH]c(=O)c2cc([N+](=O)[O-])cnc21`: the inhibition is active: 35.4%.

As to `Cc1cccc(OCCn2c(-c3ccc(Cl)cc3)nc3ccccc3c2=O)c1C`, the inhibition was found to be 26.2%. For `Cc1ccccc1Cn1c2ccccc2c2cnn(CC(=O)NCCc3ccc(Cl)cc3)c(=O)c21`, the inhibition turned out to be 7.9%.

Turning to `CCCCNc1nc2ccccc2n1CC(=O)N1CCc2ccccc2C1`, the inhibition is active: 52.9%. For the molecule `Nc1ncc(S(=O)(=O)NCc2ccc(F)cc2)cn1`, the inhibition was determined as 2.3%. In the case of `O=C(NC1CC(=O)N(c2ccccc2)C1)c1ccc(S(=O)(=O)N2CCCC2)cc1` (stereo not given), the inhibition was 7.72%. Under `Cc1ccc2[nH]c3c(=O)n(CC(=O)N4CCCC(C)C4)ncc3c2c1` (stereo not given) stands 4.06%; under `CC(C)c1cccc(C(C)C)c1NS(=O)(=O)c1cccs1`, -22.8%.

For `O=C(Cn1ncc2c3ccccc3n(Cc3cccc(Cl)c3)c2c1=O)N1CCCCCC1`, the inhibition was found to be 5.67%. Under `CCOc1ccc(CCNC(=O)Cn2c(C)c3cnn(-c4ccccc4)c(=O)c3c2C)cc1` stands 3.28%; under `O=C(NCc1ccco1)c1ccc2c(c1)N(Cc1cccc(Cl)c1)C(=O)c1ccccc1S2=O` (stereo not given), 0.0231%. Under `CC1(C)CC(=O)C2=C(C1)N(c1ccccc1)C(=O)C2(O)C(F)(F)F` (stereo not given) stands active: 35.6%; under `CCc1ccc(NC(=O)CC2C(=O)N(c3ccc(Cl)cc3)C(=O)N2C2CCCC2)cc1` (stereo not given), 22.1%; under `COc1cc(OC)c(NC(=O)CSc2cc(=O)n(C)c3ccc(Cl)cc23)cc1Cl`, 10.7%.

`CCc1c(CN2CCN(c3cccc(C)c3)C(C)C2)csc1C` (stereo not given): the inhibition stood at 6.2%. With `O=C(NC1CCCCC1)c1ccc2c(c1)N(Cc1cccc(Cl)c1)C(=O)c1ccccc1S2=O` (stereo not given), the inhibition is -3.66%. For the molecule `Cc1ccc(S(=O)(=O)NC(=O)Nc2cccc([N+](=O)[O-])c2)cc1`, the inhibition was active: 68.1%.

Source of the values: PubChem BioAssay AID485344 (National Center for Advancing Translational Sciences (NCATS), 2010).
